We go through 44 sequences from the supplement of paper PMC11417369.

± gives the standard deviation of the averaged measurements. The list shows a part of the results.

The subject of this experiment is PfAP2-LT AP2 domain (GST-tagged). Description: gcPBM binding intensity (ln(normalized median fluorescence intensity)); higher = stronger DNA binding. The gist of the method: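 DNA-binding domains from P. falciparum, fused to GST and produced in E. coli, were put on an Agilent 4 × 180k double-stranded probe array for 1 h in 1× PBS holding 1% milk, 0.2 mg/ml BSA, 0.5% salmon testes DNA and 0.03% Triton X-100. Probes were primer-extended, 36 bp long and drawn from intergenic genomic regions, with negative controls included. After Alexa488 anti-GST antibody detection and a 488 nm scan, binding intensity was set as the highest Masliner-normalised natural-log median intensity across replicate spots of either probe orientation.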
As to “TATACATACTCACCCACACACAAAAAAAAAAAAAAA [CACACA_site862]”, the “gcPBM binding intensity (ln)” value was determined as 9.28 ± 0.47.
With “TATTTAATGTGATACTTATATTATTTTATGATTAAA [GTGCAC_negctrl_site25]”, the “gcPBM binding intensity (ln)” value is 8.38 ± 0.32.
In the case of “AGCTCTTGTCATTTTGCACACACACCGGTATAGGTT [CACACA_site5654]”, the “gcPBM binding intensity (ln)” value stood at 9.93 ± 0.36.
In the case of “TATATATACAGACACATACACACAAATAAAAAAACA [CACACA_site3413]”, the “gcPBM binding intensity (ln)” value is 9.39 ± 0.35.
The result for “AGAAGGTAAAAACACACACACACATACAAAAAAAAA [CACACA_site3767]” reads 10 ± 0.5; that for “ATATTTAAAAAAGAGTGTACTCATCTCTTTTAAAAA [XGTACX_site1160]”, 8.29 ± 0.4.
For “GTGTATTTATGTTATACACACAAAAATATTTTGTAT [CACACA_site4305]”, the “gcPBM binding intensity (ln)” value amounted to 9.01 ± 0.33.
Regarding “AATGTAGGTTTATTTACACACAAATATAGATATATA [CACACA_site6825]”, the “gcPBM binding intensity (ln)” value stood at 8.96 ± 0.4.
The result for “ATGTTGCTCATATGAGTGCACGTTTCATTTCAGTTT [GTGCAC_site9865]” reads 9.01 ± 0.45; that for “CTATTTCGTATATATAGTACATATTATAACATACTA [XGTACX_site978]”, 8.75 ± 0.42; that for AATTTATATAATTTTGTGCACAATATTCATGTATAT, 9.12 ± 0.46.
The result for “ATTTTATTAATTTGGTGTACTTAATTTATATTTTTC [XGTACX_site4947]” reads 8.83 ± 0.47; that for “AAAAAAAAAAAATAATAAATAAATAAAAATAAATGA [CACACA_negctrl_site1623]”, 8.47 ± 0.6; that for “CCTCCATTAGATACTTGTACATAAAAGTTTTGATTG [XGTACX_site7428]”, 8.61 ± 0.42.
With “AATCATAAAATCATATGTACACATTTTTCCTATGAT [XGTACX_site8799]”, the “gcPBM binding intensity (ln)” value is 8.96 ± 0.33.
The result for “AGACTTTGTACAAACACACACATGAACACAATATTA [CACACA_site1360]” reads 9.44 ± 0.42; that for “TATTTCACAAACCTTACATGCGGTTTATTTATATAT [TGCATGCA_site123]”, 9.06 ± 0.45.
For the sequence “TTTATTAAATATATATGTACATATCAAAATGTATAA [XGTACX_site3181]”, the “gcPBM binding intensity (ln)” value came out at 8.46 ± 0.43.
Regarding “TTTTTTTTCTATTGAGCACACATATCACGATTAGTA [CACACA_site7992]”, the “gcPBM binding intensity (ln)” value was found to be 8.86 ± 0.48.
Consider “TTTTTGAATGTTTGCACACAAATCTCATAATTTTAG [CACACA_site357]”, for which the “gcPBM binding intensity (ln)” value turned out to be 8.88 ± 0.4.
“TAGTTACATAAAATATGTACGTATAATTTTTTTATT [XGTACX_site3847]”: the “gcPBM binding intensity (ln)” value is 8.56 ± 0.42.
On to “ATAATTTATATCATTACACACATTTTTTATATTTTT [CACACA_site3450]”, for which the “gcPBM binding intensity (ln)” value came to 8.98 ± 0.38.
In the case of “TTTAGTTCATACTATGCACACTACGTATATTTTTAA [CACACA_site5484]”, the “gcPBM binding intensity (ln)” value was determined as 8.95 ± 0.39.
Regarding “TATTTTCTCTTAAAAAGTACTCATATATACATTTAT [XGTACX_site7748]”, the “gcPBM binding intensity (ln)” value came to 8.57 ± 0.53.
For “ATAACATACATAACAACACACAATATTTATAGGTAT [CACACA_site6243]”, the “gcPBM binding intensity (ln)” value is 9.35 ± 0.38.
For “CGTTATATATTTTATAGTACTTTTTGTAAATTTTTT [XGTACX_site7682]” the value was 8.62 ± 0.43; for “ATTAATAAGAAGAAAAGTACAAAACAAAAAGATATA [XGTACX_site7473]”, 8.87 ± 0.51; for “TTAATTTATGTTAATGGTACGTAAATGCATTTATTT [XGTACX_site3002]”, 8.81 ± 0.41.
For “ATTTAACCAAATAATATATTTAAAAAATAGTCACAT [CACACA_negctrl_site274]” the value was 8.61 ± 0.47; for “TATAATATATGAAAAAGTACAAATATTTCGATGGTC [XGTACX_site129]”, 8.82 ± 0.38; for “TTTTATAATTTGAGAACATGCAACATAAATATAAAG [TGCATGCA_site965]”, 8.48 ± 0.45.
Consider “AACATTTTAAAATAATGTACTTGAAAAAAAAACTAC [XGTACX_site8894]”, for which the “gcPBM binding intensity (ln)” value amounted to 8.65 ± 0.51.
The result for “TGTTCTAATATTTGTTGTACGTTTACGTTTCTCTCT [XGTACX_site18]” reads 8.93 ± 0.44; that for “TATTTAAGAGTATGAACACACATCATACCCATATAA [CACACA_site5911]”, 8.81 ± 0.43.
For “CATATAAATAAATATACATGCATACATACATATATA [TGCATGCA_site713]” the value was 8.79 ± 0.38; for “AACATCTTATCATCATGTACGAAGCAGTTTTATAAG [XGTACX_site2490]”, 8.73 ± 0.32; for “TATAATAAATATACTGGTACACAAATATATATATTT [XGTACX_site7741]”, 8.78 ± 0.47.
Turning to “ATATTATATTTACATAGTACACTATATGTATATATA [XGTACX_site2101]”, the “gcPBM binding intensity (ln)” value was found to be 8.88 ± 0.39.
With “TGTAATTTTTTACGTTGTACATATATTAACAATATA [XGTACX_site3991]”, the “gcPBM binding intensity (ln)” value was 8.53 ± 0.39.
“AAAAAAAAAAAAAAAAAAACTAATATAATAAAAATA [TGCATGCA_negctrl_site150]”: the “gcPBM binding intensity (ln)” value stood at 8.38 ± 0.39.
As for “AAAAAAATAATATAATATTAAATCTTAGTTAATAAA [GTGCAC_negctrl_site658]”, the “gcPBM binding intensity (ln)” value came out at 8.38 ± 0.49.
Turning to “TTTTTTTTTTTTTTTTCTTTTTTTTTTTTAAATAAG [XGTACX_negctrl_site418]”, the “gcPBM binding intensity (ln)” value came out at 7.99 ± 0.3.
The result for “TTTTTTTTTTTTTACACACCCAAATCACATACATAT [CACACA_site6089]” reads 8.99 ± 0.54; that for “ATTTTTATATTTAATACACACATAAAATCATACCAT [CACACA_site23]”, 8.85 ± 0.39.
